# The RNAGym collection of RNA variant scans (doi:10.1073/pnas.2313332121)
# Variants at the floor of the assay are shown more often than the library holds them.
# B1: TPR 5TU (parent)
# chain: GGAUCUUCUCGAUCUAACAAAAAAGACAAAUCUGCCACAAAGCUUGAGAGCAUCUUCGGAUGCAGAGGCGGCAGCCUUCGGUGGCGCGAUAGCGCCAACGUUCUCAACUAUGACACGCAAAACGCGUGCUCCGUUGAAUGGAGUUUAUCAUG
# Variants of: B1
# Experiment: polymerase ribozyme fitness, log enrichment relative to wild type (log ratio); higher = more active; in vitro selection for triplet polymerase activity
# How it was run: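 Mutant libraries of each subunit of a heterodimeric triplet polymerase ribozyme were built by PCR and transcribed. Each library went through one round of in vitro selection in triplicate: annealing with biotinylated primer, partner subunit and triplets, frozen incubation at −7 °C, gel excision of extended constructs, streptavidin-bead capture and RT-PCR. Input and output libraries were Illumina-sequenced; only genotypes with ≥10 input reads and ≥1 read per output were kept. Fitness is log2(genotype enrichment/wild-type enrichment), using inverse-variance-weighted replicate averages.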
row,Variant,polymerase ribozyme fitness (log ratio)
1,GGAUCUUCUCGAUCUAACAAAAAAGACAAAUUUGCCACAAAGCUUGAGAGCAUCUUCGGAGGCAGAGGCGGCAGCCUUCGGUGGCGCGAUAGCGCCAACGUUCUCAACUAUGACACGCAAAACGCGUGCUCCGUUGAAUGGAGUUUAUCAUG,-3.73
2,GGAUCUUCUCGAUCUAACAAAAAAGACAAAUCAGCCGCAAAGCUUGAGAGCAUCUUCGGAUGCAGAGGCGGCAGCCUUCGGUGGCGCGAUAGCGCCAACGUUCUUGACUAUGACACGCAAAACGCGUGCUCCGUUGAAUGGAGUUUAUCAUG,-4.07
3,GGAUCUUCUCGAUCUAACAAAAAAGACAAAUCAGCCACGAAGCUUGAGAGCAUCUUCGGAUGCAGAGGCGGCAGCCUUCGGUGGCGCGAAAGCGCCAACGUUCUCAACUAUGACACGCAAAACGCGUGCACCGUUGAAUGGAGUUUAUCAUG,≤ -4.2
4,GGAUCUUCUCGAUCUAACAAAAAAGACAAAUCAGCCACAGAGCUAGAGAGCAUCUUCGGAUGCAGAGGGGGCAGCCUUCGGUCGCGAGAUAGCGCCAACGUUCUCAACUAUGACACGCAAAACGCGUGCUCCGUUGAAUUGUGUUUAUCAUG,≤ -4.2
5,GGAUCUUCUCGAUCUAACAAAAAAGACAAAUCAGCCACAUAGCUUGAGAGCAUCUUCGGAUGCAGAGGCGGCAGCCUUCGGUGGCGCGAUAGCGACAACGUUCUCAACUAUGACACGCAAAACUCGUGCUCCGCUGAACGGAAUUUAUCAUG,≤ -4.2
6,GGAUCUUCUCGAUCUAACAAAAAAGACAAAUCAGCCACAACGCUUGAGAGCAUCUUCGGAUGCAGAGGCGGCAGCCUUCGGUGGCGAGAUAGCGCCAACGUUCUCAACUAUGACACGCAAAACGCGUGCGCCGUUGAAUGGAGUUUGUCAUG,≤ -4.2
7,GGAUCUUCUCGAUCUAACAAAAAAGACAAAUCAGCCACAAAGCUUGGGAGCAGCUUCGGAUGCAGAGGCGGCAGCCUUCGGUGGCGCGGUAGCGCCAACGUUCUCAGCUAUGACACGCAAAACGCGUGCUCCGGUGAAUGGAGUUUAUCAUG,≤ -4.2
8,GGAUCUUCUCGAUCUAACAAAAAAGACAAAUCAGCCACAAAGCUUGAGCGCAUCUUCGGAUGCAGAGGCGGCAGCCUUCGGUGGCGCGAUGUCGCCAACGUUCUCAACUAUGACACGCAAAACGUGUGCUCCGUUGAAUGGAGUUUAUCAUG,≤ -4.2
9,GGAUCUUCUCGAUCUAACAAAAAAGACAAAUCAGCCACAAAGCUUGAGCGUAUCUUCGGAUGCAGAGGCGGCAGCCUUCGGUGGCGCGAUAGCGCCAACGUUCUCAACUGUGACACGCAAAAUGCGUGCUCCGUUGAAUGGAGUUUAUCAUG,≤ -4.2
10,GGAUCUUCUCGAUCUAACAAAAAAGACAAAUCAGCCAUAAAGCUUGAGAGCAUCUUCGGAUGCAGAGGCGGCAGCCUUCGGUGGCGAGAUAGCGCCAACGUUCUCAACUAUGACACGCAAAACGCGUGCUCCGUUGAAUGGAGUUUAUCAUG,≤ -4.2
11,GGAUCUUCUCGAUCUAACAAAAAAGACAAAUCAGCCACAAAGGUUGAGAGCAUCUUCGGGUGCAGAGGCCGCAGCCUUCGGUCGCGCGAUAGCGCCAACGUUCUCAACUAUGACACGCAAAACCCGUGCUCCGUUGAAUGGAAUUUAUCAUG,≤ -4.2
12,GGAUCUUCUCGAUCUAACAAAAAAGACAAAUCAGCCACAAAGUUUGAGAGCAUCUACCGAUGCAGAGGCGGCAGCCUUCGGUGGCGCGAUAGCGCCAACGUUCUCAACUAUGACACGCGAAACGCGCGCUCCGUUGAAUGGAGUUUAUCAUG,≤ -4.2
13,GGAUCUUCUCGAUCUAACAAAAAAGACAAAUCAGCCACAAAGCUUGAGAGCAUUUUCGGAUGCAGAGGCCGCAGCCUUCGGUGGAGCGUUAGCGCAAACGUUCUCAACUCUGACACGCAAAACGCGUGCUCCGUUGAAUGGACUUUAUCCUG,≤ -4.2
14,GGAUCUUCUCGAUCUAACAAAAAAGACAAAUCAGCCACAAAGCUUGAGAGCAUCUUCGGAUGCAGAGGCGGCAGCAUUCGGUGGCGCGAUAGCGUCAACGUUCUAAACUAUGACACGCAAAACGCGUGCUCCGUUGUAUGGAGUUUAUCAUG,≤ -4.2
15,GGAUCUUCUCGAUCUAACAAAAAAGACAAAUCAGCCACAAAGCUUGAGAGCAUCUUCGGAUGCAGAGGCGGCAGCGUUCGGUGCGGGGGUAGCGCCAACGUUCUCAACUAUGACACGCAAAACGCGUGCUCCGUUCAAUGGAGUAUAUCAUG,≤ -4.2
16,GGAUCUUCUCGAUCUAACAAAAAAGACAAAUCAGCCACAAAGCUUGAGAGCAUCUUCGGAUGCAGAGGCGGCAGCCUUCGGUGGUGCGAUAGCGCCAACGUUCUCGACUAUGACACGCAAAACGCAUGCUCCGUUGACUGGAGUUUAUCAUG,≤ -4.2
17,GGAUCUUCUCGAUCUAACAAAAAAGACAAAUCAGCCACAAAGCUUGAGAGCAUCUUCGGAUGCAGAGGCGGCAGCCUUCGGUGGUGCGAUAGCGCCAACGUUCUCAACUAUGACACGCAAAACGCGUGCUCCGUUGAAUGGAGUUGUUCGUG,≤ -4.2
18,GGAUCUUCUCGAUCUAACAAAAAAGACAAAUCAGCCACAAAGCUUGAAAGCAUCUGCGGAUGCAGAGGCGGCAGCCUUCGGCGGCGCGAUAGCCCCAACGUUCUCAACUAUGACAAGCAAAACGGGUGCUCCGUUGAAUGGAGUUUAUCAUG,≤ -4.2
19,GGAUCUUCUCGAUCUAACAAAAAAGACAAAUCAGCCACAAAGCUUGAAAGCAUCUUCGGAUGCAGAGGCGGCAGCCUCCGGUGACGCGAUAGCGCCAACGUUCUUAACUAUGACACGCAAAACGCGUGCUCCGUUGAAUGGAGUUUAUCAUG,≤ -4.2
